Test results: the supplement of paper PMC11417369
± gives the standard deviation of the averaged measurements. The list shows a part of the results.

The sequences below were run on PfAP2-EXP AP2 domain (GST-tagged) (assay: gcPBM binding intensity (ln(normalized median fluorescence intensity)); higher = stronger DNA binding).
In short: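 Binding of GST-tagged P. falciparum DNA-binding domains, expressed in E. coli and used at about 25 μg on average, was carried out for 1 h in 1× PBS containing 1% milk, 0.2 mg/ml BSA, 0.5% salmon testes DNA and 0.03% Triton X-100. The target was an Agilent 4 × 180k array of primer-extended double-stranded 36-bp intergenic genomic probes plus negative controls, read with Alexa488 anti-GST antibody at 488 nm. Binding intensity is the highest Masliner-normalised natural-log median intensity across replicate spots of either probe orientation.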

Row | Sequence | gcPBM binding intensity (ln)
1 | ATATGTACAAATTATACACACATGTACAATTATATA [CACACA_site1253] | 8.63 ± 0.28
2 | AAAAAAAAAAAAGAAAAATATATATATAAATAAATA [GTGCAC_negctrl_site569] | 8.29 ± 0.67
3 | ATGTCACAATTTTTCACACACAAAATTTATATACAT [CACACA_site2030] | 8.74 ± 0.4
4 | ATAAATATTGCGTGCACACACATAATATTTATATAT [CACACA_site7136] | 8.58 ± 0.099
5 | TATAATATATTCATGTGTACATATATTTCGAACATA [XGTACX_site1754] | 8.62 ± 0.33
6 | CGAAAAATATGTATGAGTACTTATATTTAAACTATA [XGTACX_site1911] | 8.37 ± 0.3
7 | CATTCCTATTATTATACACACAAATTAAGAATTCAA [CACACA_site787] | 8.44 ± 0.42
8 | ATGTCATAAAAACATATACACACTTGAAATATAAAA [CACACA_site2329] | 8.5 ± 0.41
9 | ATTTTTTTGTTAATTTGTACATAAAATTTTATTTTA [XGTACX_site7007] | 8.72 ± 0.42
10 | ATATTTATTTTATAAAGTACTAAAAAATATATTATA [XGTACX_site8522] | 8.19 ± 0.37
11 | AAAAAAAAAAAAAAAACACACAAACGCTTTTTTTTT [CACACA_site4545] | 8.77 ± 0.17
12 | GGATAAGAGGCATATACACACAATTTAAAAAAATAA [CACACA_site4657] | 8.59 ± 0.53
13 | TATATTTATACTTATACACACATTATTGAATTAACC [CACACA_site934] | 8.45 ± 0.42
14 | AAAATATTTATTCCTAGTACTTACCATTATATATAT [XGTACX_site363] | 8.8 ± 0.4
15 | AAAAAAAAATGAAAAGAAAAAAAAAGAAAAAAGGGA [CACACA_negctrl_site287] | 8.61 ± 0.67
16 | CTTTATATATTTTATTGTACTTAAAAAAAAAAAAAA [XGTACX_site2134] | 8.2 ± 0.49
17 | AAAAAATATGCATATACACACATATGTATAAATAAC [CACACA_site7090] | 8.88 ± 0.49
18 | AGTGTAAGCTAAGTGGTGCGTTGAATAAGGTTTTTT [GTGCAC_site9951] | 8.82 ± 0.2
19 | TATAGGTATTTGTATACACACAAATGTATATATCTA [CACACA_site6713] | 8.19 ± 0.27
20 | ATTATTTATATTTGGAGTACTTATAATATTTTTATA [XGTACX_site1289] | 8.54 ± 0.26
21 | TATATATATAATATATGTACTCATATTAAGAGATAC [XGTACX_site1354] | 8.82 ± 0.11
22 | AAGAGGATACACAATGTGCACTTTTTTTTTTTTTTT [GTGCAC_site9415] | 8.78 ± 0.23
23 | TATACAGATATATATACACACATATATATAAATACA [CACACA_site4383] | 8.44 ± 0.3

Row | Sequence | gcPBM binding intensity (ln)
24 | ATAAATAAAACAAATAGTACAATATAAAAAAAAAGG [XGTACX_site87] | 8.86 ± 0.3
25 | AAAAAAAAAAAAAACACACACACACGCATACACATA [CACACA_site7364] | 8.71 ± 0.61
26 | AATGAGCTTTTTAAAAGTACTAAATATAAATAAATA [XGTACX_site3632] | 8.46 ± 0.3
27 | TATATATGTATATTTTGTACGTATTTATTTACATGA [XGTACX_site4584] | 8.41 ± 0.29
28 | TATTACTTAAATAAAAGTACATATAACATTTTAGTT [XGTACX_site196] | 8.16 ± 0.33
29 | AATAGTTGCTAAAGGTGTACAATACATTTATTAGAA [XGTACX_site2773] | 8.71 ± 0.25
30 | TGTATAGTCTAAAGTTGTACAAAAAAAAAAAAAAAA [XGTACX_site5764] | 8.39 ± 0.41
31 | TCTTTGGTATTTACATGTACATATTCTTAAAAACAT [XGTACX_site3124] | 9.04 ± 0.26
32 | GAAAATAAAATATTAGTGCATTATTTGATCAATAAT | 8.64 ± 0.13
33 | AATTATAAATCTTGCACACAAAAAAAATAATAAAAA [CACACA_site2434] | 8.36 ± 0.43
34 | TAATAAATAATGGTTACACACAAAATATAAAACTTA [CACACA_site3544] | 8.36 ± 0.39
35 | TAAACACATATATAGACATGCAACTAGTTTTTATAA [TGCATGCA_site474] | 8.68 ± 0.57
36 | AAATCTTTGTGTGGATGTACTTTTATAAAAAAGAAT [XGTACX_site3830] | 8.53 ± 0.36
37 | TCTGTTCTTTTTTAATGTACAAGAAATATAAAATTC [XGTACX_site3600] | 8.38 ± 0.38
38 | AATTTTTAGTATATAACATAAAATAAAATAAAATAA [GTGCAC_negctrl_site696] | 8.47 ± 0.38
39 | TTATTTTTTTTTTTTTGTACACAATTTGACACATTA [XGTACX_site7983] | 8.59 ± 0.57
40 | TTTATTTAATTATGTTGTACATGTAGGATTTATTTT [XGTACX_site7078] | 8.68 ± 0.42
41 | TAAAAAGTTATATTCACACACATACACATATAAATA [CACACA_site6398] | 8.45 ± 0.56
42 | AAAAAGGAAATAATAACACACATTAATAATTATAAA [CACACA_site3401] | 8.58 ± 0.44
43 | GTTAAAAAAAGGAGAGATCTCACACAAATATATATA [GTGCAC_negctrl_site117] | 8.74 ± 0.55
44 | GGGTGCCAAATTAGCACACACATATATACCTGAATT [CACACA_site5551] | 8.7 ± 0.28
45 | ATGATAAATATAAGTTGTACATATATCTATGTGCAT [XGTACX_site6010] | 8.34 ± 0.27
46 | CATAAATACTATATATGTACGTAATTTTTAAAACAT [XGTACX_site7710] | 8.72 ± 0.35

Row | Sequence | gcPBM binding intensity (ln)
47 | CATTTAATAATAACAAGTACACAAAGATGTATAACA [XGTACX_site8315] | 8.38 ± 0.2
48 | AATATATATGAAAAAAGTACTCAAGGAATAAAAAAA [XGTACX_site7720] | 8.92 ± 0.38
49 | TATATATATATATATGTGCGCATTACTTTAAGAATA | 10.1 ± 0.35
50 | TTACAAATAATTTGTTGTACGCTTTTTTTCTTTTTT [XGTACX_site7199] | 8.71 ± 0.4
51 | TATAATATTCTATATGCATGTACACCATTCTTTATT [TGCATGCA_site688] | 9.19 ± 0.4
52 | ACAATATCTAGATACACACACATATCTCTCAATCTA [CACACA_site656] | 8.66 ± 0.36
53 | TTTTTTTTTATTTGTTGTACGAGGTTTTAAAATTTT [XGTACX_site106] | 8.79 ± 0.49
54 | TAATAAAACATATATACACACATTATATATACATAT [CACACA_site8495] | 8.35 ± 0.35
55 | AAAAAGGTTATTGGTACACACATATGTATATAAATA [CACACA_site6402] | 8.71 ± 0.46
56 | TATTGTTATCTTTTATGTACTTAAAAAAATAAATTT [XGTACX_site4233] | 8.54 ± 0.2
57 | GTAGGCATTAAAAAATGTACAAAATATTATGAATTG [XGTACX_site1615] | 8.49 ± 0.45
58 | GTATGAAATTATAATAGTACATATAAATAAAAAAAA [XGTACX_site8955] | 8.66 ± 0.39
59 | TGTATTATATGTAAATGTACATTTAATATTTTATAT [XGTACX_site4461] | 8.54 ± 0.33
60 | TATATATAATATATATATATGGAAATTCTTTTAAAT [XGTACX_negctrl_site50] | 8.24 ± 0.3
61 | ATATAAGGATAACCTAGTACATATTATATGAAACAA [XGTACX_site8459] | 8.62 ± 0.3
62 | AAGGGGAAAAAAAAAAGTACACAAACATAGGATAAT [XGTACX_site377] | 9.29 ± 0.46
63 | CAATTAAAATGCAACGGTACACATAAAAAAAATAAA [XGTACX_site6216] | 8.95 ± 0.3
64 | AAAATAAATAAATAAATATATATATATATATATATA [TGCATGCA_negctrl_site558] | 9.99 ± 0.4
65 | TACGGTAAATAGTGTTGTACGATACAATTGTTTTCT [XGTACX_site8118] | 8.43 ± 0.39
66 | CCACAAGTATATAGTAGTACAATTTTTTTCTCTTTA [XGTACX_site4403] | 8.45 ± 0.41
67 | TTTATGTGTTATAAATGTACATAATATAATTCGTAT [XGTACX_site3845] | 8.56 ± 0.35
68 | TTTTTTTTATTTTGTTGTACGCTTATTTGTATATAT [XGTACX_site7325] | 8.95 ± 0.45
69 | TTATCTATAAATACGAGTACGCAAAATCATATAATA [XGTACX_site2447] | 8.9 ± 0.47

Row | Sequence | gcPBM binding intensity (ln)
70 | TTTTTATAAAATTTTATGAGCTCGGAAAAAATAAAC [GTGCAC_negctrl_site637] | 8.97 ± 0.37
71 | TAATTATTTGCCCTTACTCTGAACATTCGGAATTTA [CACACA_negctrl_site1278] | 8.56 ± 0.4
72 | ATTTACGCGCTTATTACACACACATACAAATAAGGA [CACACA_site9157] | 8.81 ± 0.43
73 | TTTTAATATTAAGATGTCTTTTACGTTTATTTTGTA [CACACA_negctrl_site765] | 8.57 ± 0.55
74 | TTCTTTTTAAATTACACACACATATAAATATGTATA [CACACA_site7618] | 8.66 ± 0.21
75 | ATCTGCATATATATATGTACATATTTTAGAATGCAC [XGTACX_site708] | 8.77 ± 0.26
76 | GGATAAAATGCTACGAGTACATAAGCATTTTTCCCT [XGTACX_site7796] | 8.73 ± 0.35
77 | TATAAACATATAAAAAGTACATACCAATTAATATTA [XGTACX_site967] | 8.44 ± 0.4
78 | TATTCTGTGTATAAAAGTACAAATATTTAAATGTAT [XGTACX_site8234] | 8.65 ± 0.26
79 | AATATATTCATCATATCAATATTGTCAAGCAAACGA [TGCATGCA_negctrl_site37] | 8.62 ± 0.54
80 | TCTTTTAAAAATATAAAAAGGAATATATAAAAATGT [CACACA_negctrl_site332] | 8.67 ± 0.4
81 | GAATTTATTTTATTTTCACACACAAAAATAAATATC [CACACA_site8762] | 8.51 ± 0.35
82 | AATAAATAGATATATACACACATATATGTGTACATA [CACACA_site7476] | 8.37 ± 0.29
83 | TTATCCATTTTAATCACACATACTTTACTTTGGAAC [CACACA_site5584] | 8.54 ± 0.41
84 | TTCTTTAATAAAATAATCTCAAAGAAAATTTTTTCT [GTGCAC_negctrl_site589] | 7.93 ± 0.36
85 | ATATTATTATAAACTTCACACATTTTATGGGTTTTT [CACACA_site4631] | 8.38 ± 0.32
86 | TACAATTTAAAACACACACACAATAATACATATATA [CACACA_site1251] | 8.8 ± 0.5
87 | TATATTATTTATATTTGTACACAGCGATATGAAATA [XGTACX_site987] | 8.65 ± 0.47
88 | CATAAGCACAAGCACAAGCACACATTTATATATATA [CACACA_site882] | 9.14 ± 0.057
89 | CGCATATTTTATGTTTGTACTCATATGAATATCATA [XGTACX_site4717] | 8.71 ± 0.38
